Test results taken from PubChem BioAssay AID1461 (National Center for Advancing Translational Sciences (NCATS), 2008).
The campaign covered roughly 220,000 compounds. About 2,300 (1%) were called active. This list was built around the results that the source calls inconclusive (neither active nor inactive); the mix of calls is not that of the screen. Calls come from the whole dose curve; as a rule, active = well fitted inhibition curve with a large enough effect; inconclusive = small, poorly fitted or top-dose-only effect, or effect the other way; inactive = no such curve, though single readings can be large or run the other way. Where the call is inconclusive, the potency comes from a doubtful curve fit.
% is set by controls: 0 for no effect and ±100 for the full control effect; potency is the fitted concentration of half-maximal effect; tags give direction and shape of the fitted curve.
Note: nearly all actives have a fitted effect of over 50% in size.

The compounds below were run against Neuropeptide S receptor (Homo sapiens) (UniProt Q6W5P4) (assay: qHTS Assay for Antagonists of the Neuropeptide S Receptor: cAMP Signal Transduction). Details: CHO-NPSR cells, cAMP TR-FRET, antagonist mode; activity change, negative = inhibition: at 38.3 µM (top of the series) unless noted.
Sequence of UniProt Q6W5P4 (Q6W5P4 whole entry, looked up): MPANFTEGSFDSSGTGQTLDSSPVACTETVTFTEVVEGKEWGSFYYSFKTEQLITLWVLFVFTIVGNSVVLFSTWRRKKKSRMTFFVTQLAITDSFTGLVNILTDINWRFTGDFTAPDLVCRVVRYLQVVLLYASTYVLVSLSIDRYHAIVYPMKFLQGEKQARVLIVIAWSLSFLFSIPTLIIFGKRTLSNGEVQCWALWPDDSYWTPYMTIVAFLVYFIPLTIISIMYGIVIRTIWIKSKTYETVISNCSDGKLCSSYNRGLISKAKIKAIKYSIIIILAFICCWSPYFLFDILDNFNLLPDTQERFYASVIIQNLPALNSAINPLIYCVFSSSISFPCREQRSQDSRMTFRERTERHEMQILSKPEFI
In the case of `CN1C(=O)SC(Nc2cccc3ccccc23)C1=O` (configuration not stated), the Potency is reported as inconclusive: 1.26 µM [activator, single point].
`COC(=O)c1c(NC(=O)Nc2ccc(Cl)cc2)sc(C)c1C` was tested, and the Potency was active: 10 µM.
With `Cc1ccc(C)c(NC(=O)CN(C)C(=O)CCN2C(=O)c3ccccc3C2=O)c1` the “activity change, negative = inhibition” value was inactive: -6.38% [at 46.1 µM].
In the case of `CCOC(=O)c1c(NC(=O)c2cccs2)sc(C)c1CC`, the Potency is reported as inconclusive: 5.01 µM [inhibitor, single point].
With `Clc1cccc(Cl)c1/C=N/Nc1c(Cl)cncc1Cl` the Potency was inconclusive: 10 µM [activator, single point].
With `CCCS(=O)(=O)c1c(S(=O)(=O)CCC)c2c3ccccc3ccn2c1C(=O)OC` the “activity change, negative = inhibition” value was inactive: -18.9% [at 46.1 µM].
In the case of `O=C(c1ccc(F)cc1)N1CCN(c2ccc([N+](=O)[O-])cc2-n2cccc2)CC1`, the Potency is reported as active: 10 µM.
`NNC(=O)c1ccc(CSc2cccc3cccnc23)cc1` was tested, and the “activity change, negative = inhibition” value was inactive: 5.97%.
With `COc1cccc(C2C3=C(N=C4SCC(=O)N42)c2ccccc2CC3)c1OC` (configuration not stated) the Potency was inconclusive: 15.8 µM [inhibitor, partial curve].
For `CCO[C@H]1OC(C(=O)N2CCN(Cc3ccc4c(c3)OCO4)CC2)=C[C@@H](c2csc3ccccc23)[C@@H]1CCCO`, the Potency was inconclusive: 3.98 µM [activator, full curve].
In the case of `CC(C)C(c1nnnn1C(C)(C)C)N1CCN(c2cccc(Cl)c2)CC1` (configuration not stated), the Potency is reported as inconclusive: 12.6 µM [inhibitor, single point].
For `CCCCCOC(=O)C1=C(C)Nc2nnnn2C1c1ccccc1Cl` (configuration not stated), the Potency was inconclusive: 10 µM [inhibitor, single point].
For `Oc1ccc(Br)cc1-c1cc(-c2ccco2)[nH]n1`, the Potency was inconclusive: 15.8 µM [activator, single point].
With `Cc1ccc(CCN2CC(C(=O)NCCN3CCCCCC3)CC2=O)cc1` (configuration not stated) the “activity change, negative = inhibition” value was inactive: -11.3% [at 46.1 µM].
In the case of `CC(=O)Nc1ccc(NC(=O)COC(=O)c2c3c(nc4ccccc24)CCN(Cc2ccccc2)C3)cc1`, the Potency is reported as inconclusive: 10 µM [inhibitor, single point].
For `O=C1NC(=S)N(c2cccc(Cl)c2)C12CCCCC2`, the “activity change, negative = inhibition” value was inactive: -15.3%.
`COc1ccccc1OCc1cc(-c2ccccc2)no1` was tested, and the “activity change, negative = inhibition” value was inactive: -4.82%.
In the case of `O=C(Nc1ccc(Nc2ccccc2)cc1)Nc1ccccc1Cl`, the Potency is reported as inconclusive: 20 µM [activator, single point].
In the case of `CCCc1c(-c2ccc(O)cc2)nn(-c2ccc(O)cc2)c1-c1ccc(O)cc1`, the Potency is reported as inconclusive: 12.6 µM [inhibitor, single point].
In the case of `CCc1nc2c(sc3nc(N4CCOCC4)c4c(c32)CC(C)(C)OC4)c(=O)o1`, the “activity change, negative = inhibition” value is reported as inactive: -6.74% [at 46.1 µM].
In the case of `CC12CN3CC(C)(CN(C1)C3c1ccc3ccccc3c1O)C2=O` (configuration not stated), the Potency is reported as inconclusive: 15.8 µM [inhibitor, single point].
`CCNC(=O)NS(=O)(=O)c1cnccc1Nc1cccc(Cl)c1` was tested, and the “activity change, negative = inhibition” value was inactive: 9.71%.
`COC(=O)C(C(=O)OC)C(C[N+](=O)[O-])c1ccc(OC)cc1` (configuration not stated) was tested, and the “activity change, negative = inhibition” value was inactive: -3.08% [at 46.1 µM].
With `O=C(CSc1ncccn1)NC(=O)NCc1ccco1` the “activity change, negative = inhibition” value was inactive: 8.37%.
For `COc1cccc(-n2nnnc2SCC(=O)c2cc(OC)ccc2OC)c1`, the Potency was inconclusive: 7.94 µM [inhibitor, partial curve].
`CC(=O)NS(=O)(=O)c1ccc(NC(=O)c2oc3c(Cl)cccc3c2C)cc1` was tested, and the Potency was inconclusive: 10 µM [activator, partial curve].
With `CCCC(c1nnnn1Cc1ccc(F)cc1)N1CCN(C2CCCCC2)CC1` (configuration not stated) the Potency was inconclusive: 3.16 µM [inhibitor, full curve, poor fit].
With `O=C1c2ccccc2C(Nc2cccc(C(F)(F)F)c2)N1Cc1ccco1` (configuration not stated) the Potency was inconclusive: 25.1 µM [inhibitor, single point].
For `CCCCOC(=O)CSC1=C(C#N)C(c2cccnc2)C(C(=O)OCC)=C(c2ccccc2)N1` (configuration not stated), the Potency was inconclusive: 12.6 µM [inhibitor, single point].
For `Cc1ccc(Sc2ccc(/C=C3/C(=O)NN(c4ccccc4)C3=O)o2)cc1`, the Potency was inconclusive: 12.6 µM [inhibitor, single point].
`Cc1ccc2cc(CN(CC3CCCO3)S(=O)(=O)c3ccccc3)c3nnnn3c2c1` (configuration not stated) was tested, and the Potency was inconclusive: 3.98 µM [inhibitor, partial curve, poor fit].
`CC1CCN(c2ccc(/C=N\Nc3nncn3N)cc2[N+](=O)[O-])CC1` was tested, and the “activity change, negative = inhibition” value was inactive: -5.24%.
For `CC(C)NC(=O)/C(C#N)=C/c1ccc(N(C)C)o1`, the Potency was active: 12.6 µM.
For `CCCOc1ccc(-c2nn(-c3ccccc3)cc2/C=C2\SC(N)=NC2=O)cc1`, the Potency was active: 3.98 µM.
`O=C(CN1CCN(C(c2ccccc2)c2ccccc2)CC1)N1CCN(c2ccccc2)CC1` was tested, and the Potency was inconclusive: 10 µM [inhibitor, single point].
For `CNc1ccc(Br)cc(C(=O)/C=C/c2ccc(Cl)cc2Cl)c1=O`, the Potency was inconclusive: 25.1 µM [activator, single point].
In the case of `CCN(CC)c1nc(N)c2c(N)n(-c3ccccc3C)c(=S)c(C#N)c2c1C#N`, the “activity change, negative = inhibition” value is reported as inactive: 13.6% [at 46.1 µM].
For `COCCCNC(=O)c1oc2ccc(S(=O)(=O)N(C)C3CCCCC3)cc2c1C`, the Potency was inconclusive: 12.6 µM [inhibitor, single point].
For `C/C(=C/c1oc2ccc(O)cc2c1[N+](=O)[O-])N(C)C`, the Potency was inconclusive: 10 µM [inhibitor, partial curve].
`COc1ccc(/C=C2/C(=O)ON=C2c2ccccc2)cc1OC` was tested, and the Potency was inconclusive: 25.1 µM [inhibitor, single point].
In the case of `C=CCN1C(=O)C(O)(CC(=O)c2ccccc2)c2ccccc21` (configuration not stated), the “activity change, negative = inhibition” value is reported as inactive: -7.52% [at 46.1 µM].
With `Cc1ccc(-n2nnnc2SC(C)C(=O)Nc2ccc(Cl)cn2)cc1` (configuration not stated) the Potency was inconclusive: 10 µM [inhibitor, single point].
With `Cc1nn(-c2ccc(F)cc2)c2sc(C(=O)OC3CCOC3=O)cc12` (configuration not stated) the Potency was inconclusive: 31.6 µM [inhibitor, single point].
For `CC(C)c1ccc(Nc2c([N+](=O)[O-])c(=O)n(C)c3ccccc23)cc1`, the Potency was inconclusive: 10 µM [activator, single point].
For `Cc1onc(-c2ccc(Cl)cc2)c1-c1ccnc(SCC(=O)Nc2cc(Cl)cc(Cl)c2)n1`, the Potency was inconclusive: 7.94 µM [activator, partial curve].
With `COc1ccc(C2=NN(C(=O)CSc3ncccn3)C(c3ccc(C)cc3)C2)cc1` (configuration not stated) the Potency was inconclusive: 12.6 µM [inhibitor, single point].
For `COc1ccc2[nH]c(=O)c(CN(Cc3cccs3)Cc3nnnn3C(C)(C)C)cc2c1`, the Potency was inconclusive: 20 µM [inhibitor, partial curve, poor fit].
With `O=C1NC2(CCCCCC2)C(=O)N1Cc1ccc([N+](=O)[O-])cc1` the “activity change, negative = inhibition” value was inactive: -8.93% [at 46.1 µM].
With `CCc1c(C)nc2cc(-c3ccc(OC)c(OC)c3)nn2c1NCC1CC1` the Potency was active: 12.6 µM.
With `COC(=O)c1nc(-c2ccc(C)cc2)oc1N(C)C` the Potency was inconclusive: 10 µM [inhibitor, single point].
In the case of `CC1C(c2ccccc2)N(C)C(c2ccccc2)CC1(O)c1ccccc1` (configuration not stated), the Potency is reported as inconclusive: 1.26 µM [inhibitor, full curve, poor fit].
With `COc1ccc(-n2nnnc2SCC(=O)NCCc2ccccc2)cc1OC` the “activity change, negative = inhibition” value was inactive: 11.5%.
In the case of `CSc1nc2c(c(=O)n1Cc1ccccc1)SC(C)C2` (configuration not stated), the Potency is reported as inconclusive: 12.6 µM [activator, partial curve].
For `COc1ccc(C(=O)C/C(=C\C(=O)c2ccc(C)cc2)c2ccccc2)cc1`, the Potency was inconclusive: 10 µM [inhibitor, partial curve].
`CCOC(=O)CNC(=O)C1c2ccccc2C(=O)N(c2ccc(OC)cc2)C1c1ccc(OC)cc1` (configuration not stated) was tested, and the Potency was inconclusive: 25.1 µM [inhibitor, single point].
For `CCOC(=O)c1sc(=NC(=O)c2ccc(S(=O)(=O)N(C)c3ccccc3)cc2)n(C)c1C`, the Potency was active: 3.16 µM.
`Clc1ccc(Sc2cc(Cl)c(-c3ccccc3)nn2)cc1` was tested, and the Potency was inconclusive: 7.94 µM [inhibitor, partial curve, poor fit].
`Cc1cccc(-n2c(-c3ccncc3)n[nH]c2=S)c1` was tested, and the “activity change, negative = inhibition” value was inactive: -15.1% [at 46.1 µM].
In the case of `COC(=O)CCn1nnc(-c2ccc(C)cc2)n1`, the “activity change, negative = inhibition” value is reported as inactive: -4.75% [at 46.1 µM].
In the case of `COc1ccc2c(c1)Cc1sc(NC(=O)c3cccs3)nc1-2`, the Potency is reported as inconclusive: 12.6 µM [inhibitor, single point].
For `COC(=O)c1cc2sc(Cl)cc2n1CC(=O)Nc1ccc(OC)c(OC)c1OC`, the Potency was inconclusive: 12.6 µM [inhibitor, partial curve, poor fit].
`CN(Cc1cccs1)C(=O)Cn1cnc2cc([N+](=O)[O-])ccc2c1=O` was tested, and the “activity change, negative = inhibition” value was inactive: -13.3%.
For `Cc1ccc2cc(CCNC(=O)C(C)C)c(=O)[nH]c2c1C`, the “activity change, negative = inhibition” value was inactive: 18.7%.
With `Cc1cc(C(=O)N2CCc3ccccc32)c2ccccc2n1` the Potency was inconclusive: 12.6 µM [inhibitor, single point].
For `Cc1ccc(S(=O)(=O)NCc2nnc(SCC(=O)Nc3cccc(C)c3C)n2C)cc1`, the “activity change, negative = inhibition” value was inactive: -11.2% [at 46.1 µM].
With `O=C(CSCc1cccc(Br)c1)N=Nc1c(O)[nH]c2ccccc12` the “activity change, negative = inhibition” value was inactive: -14.8% [at 46.1 µM].
In the case of `COc1ccc(C2c3ccc4ccccc4c3Oc3ncn(Cc4ccco4)c(=N)c32)cc1OC` (configuration not stated), the Potency is reported as inconclusive: 25.1 µM [inhibitor, single point].
With `CC(Nc1ccc(Cl)cc1)c1cc(Cl)ccc1O` (configuration not stated) the Potency was inconclusive: 10 µM [inhibitor, single point].
For `CCOC(=O)C1Cn2c(nc3c(c2=O)C(C)(C)Cc2ccccc2-3)S1` (configuration not stated), the activity change, negative = inhibition was inconclusive: -32.3% [inhibitor] [at 46.1 µM].
With `CC(=O)c1c(OC(=O)c2ccccc2Br)ccc2c(C)cc(=O)oc12` the “activity change, negative = inhibition” value was inactive: -21.7%.
In the case of `O=C(Cn1cc(S(=O)(=O)Cc2ccccc2)c2ccccc21)Nc1ccccc1`, the “activity change, negative = inhibition” value is reported as inactive: -3.81%.
In the case of `Cc1ccc2[nH]c(=O)c(CN(Cc3ccc4c(c3)OCO4)Cc3nnnn3Cc3ccco3)cc2c1`, the Potency is reported as inconclusive: 12.6 µM [inhibitor, partial curve].
